First the molecules themselves.
B1: CPEB3 Ribozyme (parent)
chain: UAACAGGGGGCCACAGCAGAAGCGUUCACGUCGCAGCCCCUGUCAGAUUCUGGUGAAUCUGCGAAUUCUGCUGUAUAUCUC

Read counts are not given, so values of variants with three or more changes are uncertain.

Variants of B1 are the subject of this data set. Briefly: self-cleavage, relative activity (ratio to wild type); higher = more cleavage; in vitro, sequencing. A digest of the protocol:
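CPEB3 self-cleaving ribozyme mutant libraries were made by rounds of error-prone PCR, barcoded, and transcribed in vitro with T7 RNA polymerase for 5 hours at 37°C. Cleavage occurred during transcription and a 15 min DNase I step before EDTA stop. RNAs were reverse transcribed with template switching and Illumina-sequenced, with DNA sequencing mapping barcodes to variants. Relative activity is the variant's cleaved/total read fraction divided by wild type's (minimum 5 reads), averaged across three batches.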
In the case of UAACAGGGGGCCACAGCAGGAGCGUUCACGUCGCUGCCCCUGUCAGAUUCUGGUGAAUCUGCGGAUUCUGCCGUAUAUCUC, the self-cleavage stood at 0.16.

As for UAACAGGGGGCCACAGCAGGGGCGCUCACGUCGCAGCCCCAGUCUGAUGCUGGUGAGUCUGCGAAUUCUGCUGUAUAUCUC, the self-cleavage was determined as 0.14. Consider UAACAGGGGGCCACAGCAGGAGCGUUCUCGUCGCAGACCCUAUCAGAUUCUGGGGAAUCUGCGAAUUCUGCUGUAUACCUC, for which the self-cleavage was 0.25. The same measure for UAACAGGGGGCCACAGCAGGAGCGUUCGCGUAGCAGCCCCUGUCAGAUUCUGGUGAAUCUGCGAAUUCUGCCGUAUAUCAC: 0.23; for UAACAGGGGGCCACAGCAGGAGCGUUCGCGUCGCAGCCCCUGUCAGGUUCUGGUGAAUCUGCGAAUUCUGCUGUAUAUCCC: 0.51; for UAACAGGGGGCCACAGCAGGGGCCUUCACGUCGCAGCCCCUGUCAGAUUCUGGUGAAUCUGCGAAUCCUGCUGUAUAUCUC: 0.06. Turning to UAACAGGGGGCCACAGCAGGAGCGUUCUCGUAGCGGCCCCUGUCAGAUUCUGGUGAAUCUGCGAAUUCCGCUGUAUAUCUC, the self-cleavage was 0.12. The same measure for UAACAGGGGGCCACAGCAGGAGCGUUCGUGUCGCAGUCCCUGUCAGACCCUGGUGAAUCUGCGAAUUCUGCUGUAUAUCUC: 0.04; for UAACAGGGGGCCACAGCAGGAGCGUUCACGUCGCGGCCCCUAUCAGAUUCCGGUGAAUUUGCGAAUUCUGCUGUAUAUCCC: 0.25. For UAACAGGGGGCCACAGCAGGAGCGUUCGCGUCGCAGCCCCUGUCAGAUUCUGGUGAAUCUGCGGAUUCUGCUGUAUAUCAC, the self-cleavage turned out to be 0.42. On to UAACAGGGGGCCACAGCAGGAGCGUUCGCGUCGCAGCCCCUGUCAGAUCCUGGUGAAUCUGCGAAUUCUGCUGUAUAUCUC, for which the self-cleavage is 0.46.

Take UAACAGGGGGCCACAGCAGGAGCGUUCACGUCGCCGCCCCUGUCAGAUUCUGGUGAAUCUGCGAACUCUGCUGUAUAUCUC: the self-cleavage amounted to 0.23. The same measure for UAACAGGGGGCCACAGCAGGAGCGUUCACGUCGCAGCCCCUGUCGGAUUCUGGUGAAUCUGCGCAUUCUGCUGUAUAUCUC: 0.45. Consider UAACAGGGGGCCACAGCAGGAGCGUUCACGUCGCUGCCCCUGUCUGAUUCUGGUGAAUCUGCGAAUACUGCUGUAUUUCUC, for which the self-cleavage turned out to be 0.16. The same measure for UAACAGGGGGCCACAGCAGGAGCGUUCACGUCGCUGCCCCUGUCGGAUCCUGGUGAACCUGCGAAUUCCGCUGUAUAUCUC: 0.05.

Regarding UAACAGGGGGCCACAGCAGGGGCGUUCACGUCGCAGCCCCUGUCAGAUUCUAGUGAAUCUGCGAAUUCGGCCGUAUAUCUC, the self-cleavage stood at 0.07. The same measure for UAACAGGGGGCCACAGCAGGGGCGUUCACGUCGCAGCCCCUGCCAGAUUCUGGUGAAUCUGCGAAUUCUGCUAUAUAUCUC: 0.41; for UAACAGGGGGCCACAGCAGGAGCGUUCGCGUCGCAGCCCCCGUCAGAUUCUGGUGAAUCAGCGAAUUCAGCCGUAUAUCUC: 0.18. The same measure for UAACAGGGGGCCACAGCAGGAGCGUUCACGUCGCUGCCCCUGUCAGAUUCCGGAGAACCUGCGAAUUCUGCUGCAUAUCUC: 0.1; for UAACAGGGGGCCACAGCAGGAGCGUUCACGUCGCGGCCCCUGUCUGACUCUCGUGUAUCUGCGAAUUCCGCUGUAUAUCUC: 0.3; for UAACAGGGGGCCACAGCAGGAGCGUUCGCGUCGCAGCCCCUGUCAGACUCUGGUGAAUCAGCGAAUUCUGCUGUAUAACUC: 0.29. The same measure for UAACAGGGGGCCACAGCAGGAGCGUUCUCGUCGCAGCCCCUGUCGGAUUCUGGUGAACCUGCGAAUUCUGCCGCAUAUCUC: 0.06; for UAACAGGGGGCCACAGCAGGGGCGUUCACAUCGCAGCCCCUGUCAGAUUCUGGUGGAUCUGCGAAUCCAGCUGUAUAUCUC: 0.13. Turning to UAACAGGGGGCCACAGCAGGAGCGUUCACGUCGCAGCCCCUGUCGGAUUCUGGUGGAUCUGCGAAUUCUGCUGUAUAUCUC, the self-cleavage amounted to 0.27.

For the variant UAACAGGGGGCCACAGCAGGAGCGUUCACGUCGCUGCCCCUGUCAGAUUCUGGUGAAUCUGCGAAUUCAGCUGUAUAUCUC, the self-cleavage was 0.2.

Regarding UAACAGGGGGCCACAGCAGGAGCGUUCUCGUCGCAGCCCCCGCCAGAUUCGGGCGAAUCUGCGUAUUCUGCUGUAUAUCUC, the self-cleavage stood at 0.08. The same measure for UAACAGGGGGCCACAGCAGGAGCGUUCACGUCGCUGCCCCUGUCAGAUUCUGGUGAAUCAGCGAAUACUGCUGUUUAUCUC: 0.1.

On to UAACAGGGGGCCACAGCAGGAGCGUUCACGUCGCGGCCCCCCUCAGAUUCUGGAGAAUCUGCGGACUCUGCUGUAUAUCUC, for which the self-cleavage amounted to 0.22. Regarding UAACAGGGGGCCACAGCAGGAGCGUUCACGUCGCAGCCCCUGUCGGAUUCUGGUGAAUCUGCGAAUUCUGCAGUAUAUCUC, the self-cleavage was found to be 0.46. The same measure for UAACAGGGGGCCACAGCAGGAGCGUUCACGUCGCAGCCCCUGUCUGAUUCUGGAGAAUCUGCGAAUUCUGCUGUAUAUCUC: 0.36; for UAACAGGGGGCCACAGCAGGGGCGUUCACGUAGCAGCCCCUGUCAGAUUCUGGUGUAUCUGCGAGUUCCGCUGUAUAUCUC: 0.07; for UAACAGGGGGCCACAGCAGGAGCGUUCCCGUCGCAGCCCCUGUCGGAUUCUGGUGAAUCUGCGAAUUCCGCGGUAUAUCUC: 0.

Regarding UAACAGGGGGCCACAGCAGGAGCGUUCGCGUCGCAGCCCCUGUCAGAUUCUGGUGAAUCUGCGAGUUCUGCUGUGUAUCUC, the self-cleavage amounted to 0.08. The same measure for UAACAGGGGGCCACAGCAGGAGCGUUCGCGUCGCAGCCCCUGUCUGAUUCUGGUGAAUCUGCGAAUUCUGCUGUAUAUCUC: 0.16; for UAACAGGGGGCCACAGCAGGAGCGUUCGCGUCGCAGCCCCUGUCGGAUUCUGGUGAAUCUGCGAAUUCUGCUGUAUAUCUC: 0.15. The same measure for UAACAGGGGGCCACAGCAGGAGCGUUCGCGUCGCCGCCCCUGUCAGAUUCUGGUGAACCUGCGAAUUCUGCUCCAUAUCUC: 0.09. The same measure for UAACAGGGGGCCACAGCAGGGGCGUUCACGUCGCAGCCUCUGUCAGAUUCUGGUGAGUCAGCGAAUUCUGCUGUAUAUCUC: 0.15; for UAACAGGGGGCCACAGCAGGAGCGUUCUUGUCGCGGCCCCUGUCAGAUUCUGGUGAAUCUGCGAAUUCUGCUGUAUAUCUC: 0.24; for UAACAGGGGGCCACAGCAGGAGCGUUCACGUCGCCGCCCCAGUCAGAUUCUGGUGAAUCCGCGAAUUCUGCUGUAUAUCUC: 0.33.

Consider UAACAGGGGGCCACAGCAGGAGCGUUCACGUCGCGGCCCCUGUCAGAUUCUGGUGAAUCUGCGAAUCCCGCUGUAUAUCUC, for which the self-cleavage was determined as 0.87. The same measure for UAACAGGGGGCCACAGCAGGAGCGUUCGCGUCGCAGCCCCUGUCAGAUUCUGGUGAAUCUGCGUAUCCUGCUGUAUAUCUC: 0.09; for UAACAGGGGGCCACAGCAGGAGCGUUCACGUCGCAGCCCCUGUCGGAUUCUGGUGAGUCUGCGGAUUCUGCUGUAUACCUC: 0.14; for UAACAGGGGGCCACAGCAGGAGCGUUCACGUCGCGGCCCCUGUCGGAUUCUGGUGAAUCUGCGUAUUCAGCUGUAUAUCUC: 0.21. The same measure for UAACAGGGGGCCACAGCAGGAGCGUUCACGUCGCAGCCCCUGUCGGAUUCAAGUGAAACUGCGAAUUCUGCUGUAUAUCUC: 0.17; for UAACAGGGGGCCACAGCAGGGGCGUUCACGUCGCAGCCCCUGUCAGAUUCUGGUGGAUCUGCGAAUUCUGCUGUAUAUCUC: 0.28; for UAACAGGGGGCCACAGCAGGAGCGUUCCCGUCGCGGCCCCUGUCAGAUUCUGGUGAAUCUGCGAAUCCUGCUGUAUAUCUC: 1.06. The same measure for UAACAGGGGGCCACAGCAGGAGCGUUCACGUCGCAGCCCCUGUCGGAUUCUGGUGAAUCUGCGAAUUCUGCUGUAGAUCUC: 0.71; for UAACAGGGGGCCACAGCAGGGGCGUUCACGUCGCAGCCCCUGUCAGACUCUGGUGAGUCUGCGAAUUCUGCUGUAUAUCUC: 0.35; for UAACAGGGGGCCACAGCAGGAGCGUUCUCGUCGCAGCCCCUGUCAUAUUCUGGUGAAUCCGCGAAUUCUGCUGUAUAUCUC: 0.25.

Consider UAACAGGGGGCCACAGCAGGAGCGUUCACGUCGCGGCCCCUGUCAGAUUCUGGUGAAUCUGCGAAUUCUGCAGUAUAUCUC, for which the self-cleavage is 1.09. UAACAGGGGGCCACAGCAGGGGCGUUCACGUCGCAGCCCCUGUCAGAUUAUGGUGAAUCUGCGAAUUCUGCUGUAUAUCUC: the self-cleavage was found to be 0.36.

With UAACAGGGGGCCACAGCAGGGGCGUUCACGUCGCAGCCCCUGUCAGAUUCUGGUGAAUCUGCGAAUUCUUCUGUAUAUCUC, the self-cleavage is 0.29. The same measure for UAACAGGGGGCCACAGCAGGGGCGUUCACGACGCAGCCCCUGUCAAAUUCUGGUGGAUCUGCGAAUUCUGCUGUAUAUCUC: 0.05. The same measure for UAACAGGGGGCCACAGCAGGAGCGUUCACGUCGCAGCCCCUGUCGGAUUCUUGUGAAUCUGCGAAUCCAGCUGUAUAUCUC: 0.1; for UAACAGGGGGCCACAGCAGGGGCGAUCACGUCGCAGCUCCUGUUAGAUUCUCGUGAGUCUGCGAAUUCUGCUGUAUAUCUC: 0.11; for UAACAGGGGGCCACAGCAGGAGCGUUCACGUCGCAGCCCCUGUCCGAUUCUGGUGAGUCUGCGAAUUCUGCUGCGUAUCUC: 0.19. On to UAACAGGGGGCCACAGCAGGGGCGUUCACGUCGCAGCCACUAUCAGAUCCUGGUGAAUCUGCGAAUUCUGCUGUAUAUCUC, for which the self-cleavage worked out at 0.09. The same measure for UAACAGGGGGCCACAGCAGGGGCGUUCACGUCGCAGCCCCUGUCAGGUUCUGGUGAAUCUGCGAACUCUGCUGUAUAUCUC: 0.24. The same measure for UAACAGGGGGCCACAGCAGGAGCGUUCACGUCGCUGCCCCUGUCAGACUCUGGUGUAUCUGCGAAUUCUGCCGUAUAUCUC: 0.07; for UAACAGGGGGCCACAGCAGGUGCGAUCACGUCGCAGCCCCUGUCAGAUUCUGGUGAAUCUGCGAGUUCUGCCGUAUAUCUC: 0.07.

Turning to UAACAGGGGGCCACAGCAGGAGCGUUCACGUCGCGGCCCCUGUCAGAUUCUGGUGAACCUGCGAAUUCUGCUGUAUAUCUC, the self-cleavage is 0.97. The same measure for UAACAGGGGGCCACAGCAGGGGCGUUCACGUCGCAGCCCCUGUCUGAUUCUGGUGAAUCUGCGAAUUCUGCUGUAUAUCUC: 0.18; for UAACAGGGGGCCACAGCAGGAGCGUUCACGUCGCGGCCCCUGUCAGAUUCUGGUGAAUCAGCGAAUUCUGCUGUACAUCUC: 0.4. The same measure for UAACAGGGGGCCACAGCAGGAGCGUUCGCGUCGCAGCCCCCGUCAGAUUCUGGGGAAUCUGCGAAUUCUGCUGUAUAUCAC: 0.31; for UAACAGGGGGCCACAGCAGGGGCGUCCACGUCGCAGCCCCUGUCAGAUUCUGGUGGAUCUGCGAAUUCUGCCGCAUAUCUC: 0.15. The same measure for UAACAGGGGGCCACAGCAGGAGCGUUCUCGUCGCAGACCCUAUCAGAUUCUGGUGAAUCUGCGAAUUCUGCUGUAUAUCUC: 0.25. Take UAACAGGGGGCCACAGCAGGAGCGUUCACGUCGCAGCCCCUGUCGGAUUCUGGUGUAUCUACGAAUUCUGCUGUAUAUCUC: the self-cleavage was determined as 0.08.

Turning to UAACAGGGGGCCACAGCAGGAGCGUUCUCGUCGCGGCCCCUGUCAGAUUCUGGUGAAUCAGCGAGUUCCGCUGUAUAUCUC, the self-cleavage stood at 0.31.
